Laboratory results: PubChem BioAssay AID1745853 (National Center for Advancing Translational Sciences (NCATS), 2022)
Some of the results follow. These are further read-outs of the screen, such as a control signal, another cell line or another target. No call is given for them.

Legend:
Assay in all cases: Primary Screen for Target Class Profiling of Small Molecule Inhibitors of Methyltransferases
[1] = target: Glycine N-methyltransferase (Homo sapiens) (UniProt Q14749); settings: purified enzyme, MTase-Glo SAH luminescence; measured here: GNMT inhibition; at 40 µM; stronger effect = lower value
Summary of the method: (§1)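 Each enzyme was assayed with SAM and its substrate. SAH formation detected by MTase-Glo luminescence; single-point 40 uM screen[…].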

[2] = target: Guanidinoacetate N-methyltransferase (Homo sapiens) (UniProt Q14353); settings: purified enzyme, MTase-Glo SAH luminescence; measured here: GAMT inhibition; at 40 µM; stronger effect = lower value
Summary of the method: as §1

[3] = target: Histamine N-methyltransferase (Homo sapiens) (UniProt P50135); settings: purified enzyme, MTase-Glo SAH luminescence; measured here: HNMT inhibition; at 40 µM; stronger effect = lower value
Summary of the method: as §1

[4] = target: Nicotinamide N-methyltransferase (Homo sapiens) (UniProt P40261); settings: purified enzyme, MTase-Glo SAH luminescence; measured here: NNMT inhibition; at 40 µM; stronger effect = lower value
Summary of the method: as §1

[5] = target: Phenylethanolamine N-methyltransferase (Homo sapiens) (UniProt P11086); settings: purified enzyme, MTase-Glo SAH luminescence; measured here: PNMT inhibition; at 40 µM; stronger effect = lower value
Summary of the method: as §1
% is set by controls: 0 for no effect and ±100 for the full control effect.

Row | Structure (SMILES) | activity change, negative = inhibition [1] [%] | activity change, negative = inhibition [2] [%] | activity change, negative = inhibition [3] [%] | activity change, negative = inhibition [4] [%] | activity change, negative = inhibition [5] [%]
1 | Cc1ccc(NC(=O)C(C)C)cc1C1CCN(Cc2ccc(Oc3ccc(F)c(F)c3)cc2)CC1 | -7.42 | -8.53 | 3.47 | -32.9 | -7.73
2 | C=CCc1cc(OC)c(OC(C)C(O)c2ccc(O)c(OC)c2)c(OC)c1 (stereo unspecified) | 1.3 | 2.36 | 7.6 | -10.8 | -4.41
3 | COc1ccccc1NC(=O)Nc1cccc(-c2nnc3n2CCCC3)c1 | -10.3 | -6.04 | -19 | -13.6 | -4.96
4 | COc1ccccc1C(CC(=O)NCC(C)C)c1cn(C)c2ccccc12 (stereo unspecified) | -7.06 | -7.39 | -5.96 | -10.2 | -10.4
5 | CO[C@@H]1COCC[C@@H]1N[C@@H]1CC[C@@](C(=O)N2CCc3ncc(C(F)(F)F)cc3C2)(C(C)C)C1 | -4.35 | -10.9 | 7.46 | -13.8 | -2.56
6 | O=c1[nH]cnc2c([C@@H]3N[C@H](CO)[C@@H](O)[C@H]3O)c[nH]c12 | -4.22 | -8.65 | -2.21 | -19.4 | -3.6
7 | COc1ccc(CCNCc2ccc(OCc3ccc(Cl)nc3)c(OC)c2)cc1OC |  | 12.2 |  | -7.78 | 2.79
8 | Cc1noc(C)c1S(=O)(=O)N1CCC2(C1)C(=O)N(c1ccccc1)c1ccccc12 (stereo unspecified) | -3.48 | -1.65 | -2.71 | -7.75 | -13
9 | O=S(=O)(c1cccc2c(I)cccc12)N1CCCNCC1 | -3.1 | 8.17 | 2.27 | -18.2 | -3.93
10 | CC1(C(=O)NC2CCCCC2)Cn2c(cc3occc32)C(=O)N1Cc1ccc(F)cc1 (stereo unspecified) | 4.77 | -14.7 | 7.69 | 10.7 | 3.76
11 | COc1ccc(-c2cc3nc4c(c(=O)n3[nH]2)CN(S(=O)(=O)c2cccs2)CC4)cc1 | -21.7 | -18.6 | -39 | -14.4 | -47.9
12 | Cc1nn(C)cc1CN(C)C(=O)c1cc2cn(C(C)C)cc2s1 | -7.99 | -2.62 | -3.35 | 0.959 | -14.8
13 | CC(=O)Nc1sc2c(c1-c1nc3ccccc3s1)CNC2 | -1.77 | -13.8 | -10 | -27.9 | -10.4
14 | Cc1nc(C)c(C(=O)N2CCC3(CC2)NC(=O)CC3C(=O)O)s1 (stereo unspecified) | -0.04 | 0.957 | -1.71 | 0.518 | 4.09
15 | CN(C(=O)Cn1nc2n(C)c(=O)c3ccc(C(=O)NC4CCCC4)cc3n2c1=O)c1ccc(F)cc1 | -0.82 | 2.85 | -0.947 | -9.37 | -4.67
16 | CCCn1c(=O)c2ccc(C(=O)NC3CCCCC3)cc2n2c(SCC(=O)c3ccc(C)cc3)nnc12 | 6.16 | 0 | 8.46 | 7.77 | 6.36

Row | Structure (SMILES) | activity change, negative = inhibition [1] [%] | activity change, negative = inhibition [2] [%] | activity change, negative = inhibition [3] [%] | activity change, negative = inhibition [4] [%] | activity change, negative = inhibition [5] [%]
17 | CC(CN1C(=O)c2cc3occc3n2CC1(C)C(=O)NC1CCCCC1)c1ccccc1 (stereo unspecified) | 5.72 | 0 | 8.24 | 13.1 | 7.09
18 | O=[S+]([O-])(c1cccs1)N1CCn2c(nnc2C2CC2)C1 | -6.5 | -6.36 | -1.61 | -10 | -18.6
19 | CC1CCCCC1NC(=O)C1(C)Cn2c(cc3occc32)C(=O)N1Cc1ccccc1 (stereo unspecified) | 2.92 | 0.873 | 5.45 | -2.81 | 2.31
20 | COc1ccc2[nH]c(S(=O)Cc3ncc(C)c(OC)c3C)nc2c1 (stereo unspecified) | 3.12 | -1.1 | 8.67 | -11.3 | -1.42
21 | CC1(C(=O)NC2CCCCC2)Cn2c(ccc2-c2ccccc2)C(=O)N1CCc1cccs1 (stereo unspecified) | 1.66 | 5.29 | 0.894 | 0.585 | 1.19
22 | CC(=O)NCCc1c[nH]c2ccc(O)cc12 | -0.42 | 9.08 | 5.46 | -6.21 | 7.66
23 | CC1(C)CC(=O)C2=C(C1)NC(=S)NC2c1cccc(O)c1 (stereo unspecified) | -12.3 | -12.8 | -2.22 | -18.1 | -4.92
24 | O=C(CC(c1ccccc1)c1ccccc1Cl)N1CCOCC1 (stereo unspecified) | -5.48 | -6.83 | -4.99 | -10.7 | 0.944
25 | O=C(Cn1cccc1-c1nc(-c2ccccc2)no1)N1CCc2ccccc21 | -4.37 | -4.97 | -2.98 | -6.06 | -6.44
26 | O=C1OC(/C=C/c2ccccc2)=NC/1=C\c1cccnc1 |  | 3.09 |  | -15.1 | -5.66
27 | CCCSCCCN1C(=O)c2cc3sccc3n2CC1(C)C(=O)NC1CCCCCCC1 (stereo unspecified) | 2.57 | 0.63 | 8.35 | 1.12 | 1.18
28 | O=C(NCCc1nc2cccnc2n1-c1ccccc1)c1cccnc1 | 14.5 | 3.66 | 12.9 | 7.13 | 10.6
29 | Cc1ccccc1N(C)C1CN([S+](=O)([O-])c2ccccc2)C1 | -5.01 | 4.52 | 0.581 | -3.11 | 2.17
30 | CCCCOc1ccc2c(-c3ccccc3)cc(=O)oc2c1 | -4.05 | 0 | 7.06 | -0.424 | -8.54
31 | Cc1ccccc1NC(=O)N1CCn2cccc2C1Cc1ccccc1 (stereo unspecified) | -5.57 | 0 | -7.47 | -3.36 | -3.73
